From a collection of fitness landscapes (doi:10.1126/science.1257360)
The list shows a part of the results.

B1: PhoQ; a variant is named by its letters at X, in order, P23837 (parent)
chain: MKKLLRLFFPLSLRVRFLLATAAVVLVLSLAYGMVALIGYSVSFDKTTFRLLRGESNLFYTLAKWENNKLHVELPENIDKQSPTMTLIYDENGQLLWAQRDVPWLMKMIQPDWLKSNGFHEIEADVNDTSLLLSGDHSIQQQLQEVREDDDDAEMTHSVAVNVYPATSRMPKLTIVVVDTIPVELKSSYMVWSWFIYVLSANLLLVIPLLWVAAWWSLRPIEALAKEVRELEEHNRELLNPATTRELTSLVRNLNRLLKSERERYDKYRTTLTDLTHSLKTPLXXLQXXLRSLRSEKMSVSDAEPVMLEQISRISQQIGYYLHRASMRGGTLLSRELHPVAPLLDNLTSALNKVYQRKGVNISLDISPEISFVGEQNDFVEVMGNVLDNACKYCLEFVEISARQTDEHLYIVVEDDGPGIPLSKREVIFDRGQRVDTLRPGQGVGLAVAREITEQYEGKIVAGESMLGGARMEVIFGRQHSAPKDE

Variants of: B1
Experiment: enrichment ratio after two sorts for PhoP signalling (ratio (wild type AVST 3.29)); higher = more functional
Details: with PhoP (E. coli)

Variant	enrichment ratio
RNWP	≤ 0.25
VPDP	≤ 0.25
GAAI	≤ 0.25
GPPN	≤ 0.25
DWHQ	≤ 0.25
ARSQ	≤ 0.25
PRMH	≤ 0.25
DQFQ	≤ 0.25
GKRH	≤ 0.25
LPMG	≤ 0.25
LSFR	≤ 0.25
NQDY	≤ 0.25
TNHE	≤ 0.25
MGCC	≤ 0.25
DHID	≤ 0.25
YPTE	≤ 0.25
SIEW	≤ 0.25
VCFE	≤ 0.25
QPSA	≤ 0.25
GRVD	≤ 0.25
SHVN	≤ 0.25
IYIR	≤ 0.25
QEKP	≤ 0.25
GQDH	≤ 0.25
IEME	≤ 0.25
LKEL	≤ 0.25

Variant	enrichment ratio
DGEF	≤ 0.25
EPRD	≤ 0.25
VVGF	≤ 0.25
SLNA	≤ 0.25
WCKI	≤ 0.25
NCDA	≤ 0.25
PYHS	≤ 0.25
SPEH	≤ 0.25
GISW	1.18
KRSV	≤ 0.25
SEQF	≤ 0.25
VKPS	≤ 0.25
RMFY	≤ 0.25
YHQM	≤ 0.25
IKIV	≤ 0.25
GKPC	≤ 0.25
VTPW	≤ 0.25
KINL	≤ 0.25
QQAQ	≤ 0.25
SMEY	≤ 0.25
QLTK	≤ 0.25
QVVP	≤ 0.25
YLTQ	≤ 0.25
YCDC	≤ 0.25
RWCM	≤ 0.25
TSRG	0.388

Variant	enrichment ratio
PYSH	≤ 0.25
MGER	≤ 0.25
GIGT	≤ 0.25
NTWW	≤ 0.25
HFCS	≤ 0.25
KVCY	≤ 0.25
MHQQ	≤ 0.25
YKNC	≤ 0.25
AIAA	9.24
TMNG	10.4
ILTT	≤ 0.25
CIQH	≤ 0.25
GKMC	≤ 0.25
AYPK	≤ 0.25
EEGH	≤ 0.25
SPQM	≤ 0.25
YMMT	≤ 0.25
DAKA	≤ 0.25
PLKY	≤ 0.25
FSYR	≤ 0.25
WQHK	≤ 0.25
VCWN	≤ 0.25
DTCQ	≤ 0.25
GAVY	≤ 0.25
TAIY	≤ 0.25
RYPL	≤ 0.25

Variant	enrichment ratio
KQEF	≤ 0.25
NWLY	≤ 0.25
VAIV	≤ 0.25
DQIY	≤ 0.25
YDIN	≤ 0.25
NNES	≤ 0.25
QPGW	≤ 0.25
SEDN	≤ 0.25
THWE	≤ 0.25
NLDY	≤ 0.25
YVNH	0.333
RCMF	≤ 0.25
SAWQ	3.7
LWGL	≤ 0.25
GESP	≤ 0.25
KHMF	≤ 0.25
PDVS	≤ 0.25
GTFH	≤ 0.25
FPLE	≤ 0.25
RACA	≤ 0.25
NKHW	≤ 0.25
LTYS	≤ 0.25
KMPQ	≤ 0.25
NSQR	≤ 0.25
VVTQ	≤ 0.25
SRET	≤ 0.25

Variant	enrichment ratio
LMCP	≤ 0.25
KKGD	≤ 0.25
NDMA	≤ 0.25
VNQN	≤ 0.25
GMGD	≤ 0.25
HGCV	1.93
LNTS	≤ 0.25
GHHN	≤ 0.25
FLRQ	≤ 0.25
CYLS	≤ 0.25
RMFS	≤ 0.25
LLLD	≤ 0.25
DILK	≤ 0.25
VKHR	≤ 0.25
QNQR	≤ 0.25
MKPQ	≤ 0.25
SAGC	4.94
NHTA	≤ 0.25
KCSR	≤ 0.25
IILK	≤ 0.25
DEWQ	≤ 0.25
RKRL	≤ 0.25
VDHI	≤ 0.25
KAEV	≤ 0.25
EHKE	≤ 0.25
FHLW	≤ 0.25

Variant	enrichment ratio
HMFV	≤ 0.25
PVIE	≤ 0.25
HQVR	≤ 0.25
SQNL	1.02
FTGD	≤ 0.25
DGMM	≤ 0.25
EHSY	≤ 0.25
SDCR	2.09
ALFQ	≤ 0.25
VCIQ	≤ 0.25
WMGT	≤ 0.25
RKEY	≤ 0.25
GSVI	4.91
MMTR	≤ 0.25
MGFQ	5.15
RLVM	≤ 0.25
IEPH	≤ 0.25
SAKH	≤ 0.25
HRLL	≤ 0.25
YWSQ	≤ 0.25
RIPD	≤ 0.25
EVRM	≤ 0.25
MCER	≤ 0.25
